# Hit rate of the full screen: of about 310,000 compounds, about 14,000 (4.5%) showed an effect of 50% or more. The effect is printed as a negative number. The list shows a part of the results.
# Biological target: human ether-à-go-go-related gene (hERG) potassium channel (human, UniProt Q12809)
# Assay: primary screen, population patch clamp on CHO cells stably expressing hERG
# 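Further: peak tail current of the secondary pulse compared with the same well before compound.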
# Chain of human ether-à-go-go-related gene (hERG) potassium channel (Q12809 whole entry, looked up): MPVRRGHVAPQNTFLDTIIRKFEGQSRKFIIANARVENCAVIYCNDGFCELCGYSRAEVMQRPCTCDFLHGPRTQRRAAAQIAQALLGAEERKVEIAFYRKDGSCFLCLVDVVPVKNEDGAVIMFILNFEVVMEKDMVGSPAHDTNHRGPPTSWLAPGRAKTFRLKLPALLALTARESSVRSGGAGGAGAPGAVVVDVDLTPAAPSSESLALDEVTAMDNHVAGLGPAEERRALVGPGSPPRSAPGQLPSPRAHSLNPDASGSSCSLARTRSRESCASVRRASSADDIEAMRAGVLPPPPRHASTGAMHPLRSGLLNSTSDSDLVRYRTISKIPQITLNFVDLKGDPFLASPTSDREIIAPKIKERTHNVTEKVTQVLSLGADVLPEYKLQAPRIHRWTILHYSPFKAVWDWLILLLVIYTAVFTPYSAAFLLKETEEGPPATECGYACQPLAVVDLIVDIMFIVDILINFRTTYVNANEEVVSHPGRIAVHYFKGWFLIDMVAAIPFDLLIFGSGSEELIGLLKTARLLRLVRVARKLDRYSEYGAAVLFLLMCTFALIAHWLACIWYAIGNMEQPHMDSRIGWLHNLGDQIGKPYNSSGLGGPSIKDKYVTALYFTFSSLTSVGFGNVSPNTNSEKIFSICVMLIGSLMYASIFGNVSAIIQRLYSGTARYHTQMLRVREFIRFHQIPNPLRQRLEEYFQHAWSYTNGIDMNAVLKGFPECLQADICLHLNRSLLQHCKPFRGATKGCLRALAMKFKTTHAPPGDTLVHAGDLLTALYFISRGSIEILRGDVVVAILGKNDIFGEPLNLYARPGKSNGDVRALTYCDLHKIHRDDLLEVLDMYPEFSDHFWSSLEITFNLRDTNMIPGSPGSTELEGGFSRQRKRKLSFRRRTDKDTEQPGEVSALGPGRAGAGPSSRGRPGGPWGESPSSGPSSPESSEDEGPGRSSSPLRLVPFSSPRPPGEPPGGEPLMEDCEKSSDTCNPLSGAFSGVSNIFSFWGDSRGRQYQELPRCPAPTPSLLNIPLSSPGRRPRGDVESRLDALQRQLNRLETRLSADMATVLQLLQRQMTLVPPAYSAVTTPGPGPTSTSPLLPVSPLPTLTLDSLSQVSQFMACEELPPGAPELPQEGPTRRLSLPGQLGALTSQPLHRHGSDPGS
row,Compound,"hERG current change (%, negative = inhibition) at 10uM"
1,Cc1ccc(S(=O)(=O)NCC(=O)N(CC(=O)NCC2CCCO2)Cc2ccc(Cl)cc2)cc1 (stereo not drawn),-11%
2,CN(C)CCN1C(=O)C2C(C(=O)Nc3cc(Cl)cc(Cl)c3)C3C=CC2(O3)C1C(=O)NC1CCCCC1 (stereo not drawn),-29.7%
3,Cc1ccc(-c2nc(CN(CC3CCC3)CC3CCCO3)c(C)o2)s1 (stereo not drawn),-13%
4,CCn1c(NC(=O)c2ccco2)c(-c2ccccc2Cl)c(=O)c2ccccc21,24.9%
5,CC(C)(C)C(C(=O)Oc1ccccc1)c1ccccc1 (stereo not drawn),-1.01%
6,CN1CCN(C(=O)CCCN2C(=O)/C(=C/c3ccc(Cl)cc3)SC2=S)CC1,1.74%
7,COc1ccccc1-c1c(C(F)(F)F)oc2cc(OCC(=O)Nc3ccccc3C(F)(F)F)ccc2c1=O,-3.07%
8,Cc1ccc(-c2noc(CN(C(=O)c3cccc(Br)c3)C(C)C)n2)cc1,-13%
9,COc1ccc(N2CCN(Cc3nc4ccccc4c(=O)[nH]3)CC2)cc1,-6.67%
10,NC(=O)C1CCN(C(=O)COc2ccc3c(c2)oc(=O)c2ccccc23)CC1,3.62%
11,CCN1CCN(Cc2ccc(NC(=O)c3cc(NC(=O)c4cc(C)on4)cc(OC)c3)cc2C(F)(F)F)CC1.O=C(O)C(F)(F)F,-28.7%
12,Cc1cccc(Cc2cnc(NC(=O)CN3C(=O)/C(=C/c4ccccc4)SC3=S)s2)c1,14.1%
13,CCOC(=O)c1nn(-c2ccccc2)c(=O)cc1SC(C)C,-19.1%
14,Cc1ccc(NC(=O)c2ccccc2NS(=O)(=O)c2ccc(F)cc2)cc1S(=O)(=O)N1CCCCC1,3.17%
15,CCOCCCNS(=O)(=O)c1cc2[nH]c3c(c2cc1C)C(=O)CC(C)(C)C3,-6.44%
16,Cc1cc(C)c(C#N)c(SCC(O)COc2ccc(Br)cc2)n1 (stereo not drawn),15.8%
17,Cc1sc(NC(=O)c2cccc(N3C(=O)CCC3=O)c2)nc1-c1ccccc1,0.991%
18,O=C(N=Nc1c(O)[nH]c2ccccc12)c1ccc(CN2CCOCC2)cc1,22.9%
19,CCc1ccc(-n2c(=O)c3c(C)c(C(=O)N(C)C)sc3n(CC(=O)NCc3ccco3)c2=O)cc1,-5.72%
20,CC(=O)c1cccc(NC(=O)C(C)OC(=O)Cc2n[nH]c(=O)c3ccccc23)c1 (stereo not drawn),0.813%
21,CCc1c(C)sc(NC(=O)c2noc(C)c2[N+](=O)[O-])c1C#N,4.32%
22,COc1cccc(CN2CCNC(=O)C2CC(=O)N(C)CCc2ccccn2)c1 (stereo not drawn),1.27%
23,Cc1ccc(S(=O)(=O)c2cc3ccc(O)cc3oc2=O)cc1C,6.26%
24,CCOC(=O)c1c(C(F)(F)F)nc2ncccn12,-0.211%
25,O=C(NCc1ccccn1)c1cnc2sccn2c1=O,18.3%
26,N#CCCN1CCN(C2=NC(=O)C(=C3CCCCC3)S2)CC1,-18%
27,CC(c1ccco1)N(C(=O)c1cccc(Br)c1)c1ccccn1 (stereo not drawn),-13.4%

row,Compound,"hERG current change (%, negative = inhibition) at 10uM"
1,C=CCOc1cccc(/C=C\c2nc(O)c([N+](=O)[O-])c(=O)[nH]2)c1,19.3%
2,CC(=O)N/C(=C\c1ccccc1)C(=O)Nc1ccccc1C,4.33%
3,Cc1ccc(C(=O)NCC(=O)OCC(=O)Nc2ccccc2C#N)s1,23.9%
4,CCOCCCNC(=O)c1ccc(NC(C)=O)cc1,6.96%
5,COC(=O)c1ccccc1NC(=O)Cn1nc(C(F)(F)F)c2c1CCC2,-27.3%
6,COc1cc(NS(=O)(=O)c2ccc(NC(=O)COc3ccccc3C)cc2)nc(OC)n1,14.4%
7,Cc1cc2cc(CN(Cc3ccc4c(c3)OCO4)C(=O)c3cnccn3)c3nnnn3c2cc1C,-34.2%
8,CN(C(=O)CSc1nnc(-c2ccc(OC(F)F)cc2)n1N)C1CCS(=O)(=O)C1 (stereo not drawn),-4.2%
9,CCn1c(C)nc2cc(C(=O)N/N=C(\C)c3ccccc3O)ccc21,9.04%
10,COCCCNC(=O)CCn1c(=O)c2ccccc2n(CC(=O)Nc2ccccc2C)c1=O,9.98%
11,Brc1cccc(-c2nc(-c3ccncc3)no2)c1,11.9%
12,CC(c1nnc(SCC(=O)Nc2sccc2C#N)n1-c1ccc(Cl)cc1)N(C)C (stereo not drawn),-12.7%
13,NC(=O)c1ccc(NC(=O)COC(=O)CNC(=O)c2sc3ccccc3c2Cl)cc1,-12.8%
14,O=C(c1ccco1)N1CCN(S(=O)(=O)c2ccc3[nH]c(=O)oc3c2)CC1,-0.355%
15,CSc1ccc(CN(C)C(C)C(=O)NCC2CCCCC2)cc1 (stereo not drawn),-32.1%
16,O=C1C(Cl)=C(Nc2ccc3cn[nH]c3c2)C(=O)c2ccccc21,17.5%
17,O=C(C1CC(=O)N(c2ccc3c(c2)OCCO3)C1)N1CCN(Cc2ccccc2)CC1 (stereo not drawn),0.404%
18,CCN(CC)C1=NS(=O)(=O)c2cc([N+](=O)[O-])ccc21,-34.4%
19,COC(=O)c1ccc(C)c(NC(=O)CCc2cc(OC)c(OC)c(OC)c2)c1,-16%
20,CN(C)CCCOC(=O)Cc1ccc(Cl)cc1.Cl,-15.7%
21,Cc1c([N+](=O)[O-])cc(C(=O)Nc2ccc(Cc3ccncc3)cc2)cc1[N+](=O)[O-],-33.7%
22,CCOc1ccc(CCNC(=O)Cn2ccc3cc(S(=O)(=O)N4CCCC4)ccc32)cc1,7.21%
23,NS(=O)(=O)c1cccc2cccnc12,9.97%
24,O=C(NCc1ccco1)c1noc2c1CCCCC2,14.7%
25,OCc1cn(-c2ccccc2)nc1-c1ccco1,12.3%
26,COc1ccccc1N1CCN(S(=O)(=O)c2cn(C)nc2C)CC1,-2.6%
27,CCCCCn1c(N)c(-c2nc3ccccc3o2)c2c([N+](=O)[O-])nn(CC)c(=O)c21,7.69%
